The campaign covered roughly 420,000 compounds. About 64,000 (15%) were called active. This list was built around the results that the source calls inconclusive (neither active nor inactive); the mix of calls is not that of the screen. The call rests on the fitted dose curve; in most records, active means well fitted inhibition curve with a large enough effect; inconclusive means small, poorly fitted or top-dose-only effect; inactive means flat fitted curve, though single readings scatter. Potencies of inconclusive entries are left out as doubtful fits.
Experiment: qHTS for Inhibitors of human tyrosyl-DNA phosphodiesterase 1 (TDP1): qHTS in cells in absence of CPT; further: nearly all actives have a fitted effect of over 55% in size
Conditions: DT40 Tdp1-/- hTDP1 cells, no CPT, ATP luminescence, 48 h; series mostly up to 46.2 µM
Outline: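 DT40 Tdp1-/-;hTDP1 cells, no CPT (DMSO vehicle only), 400 cells/well; compounds pin-transferred; ≥48 hr, 37 °C; CellTiter-Glo 30 min RT dark, luminescence read.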
Potency means the concentration at half of the fitted maximal effect; tags describe the fitted curve by direction and shape.

SMILES | Potency
CCCSc1cc(NCCOC(C)=O)c([N+](=O)[O-])c2nonc12 | inconclusive [inhibitor, single point]
CCCC(=O)N/C(N)=N/c1nc2ccccc2o1 | inconclusive [inhibitor, single point]
O=C(CN1C(=O)/C(=C/c2ccccc2F)Sc2ccccc21)NCc1cccnc1 | inconclusive [inhibitor, partial curve, poor fit]
CCCNC(=O)c1ccc(Cn2c(=S)[nH]c3c([nH]c4ccc(OC)cc43)c2=O)cc1 | inconclusive [inhibitor, single point]
Cc1cccc(NC(=O)CSc2cn(CC(=O)N3CCOCC3)c3ccccc23)c1 | inconclusive [inhibitor, single point]
COc1ccc(S(=O)(=O)N(CCc2ccccc2)CC(=O)Nc2cc(C)ccc2C)cc1 | active: 20.6 µM
COc1ccccc1CNC(=O)C1(C)CCN1Cc1ccc2ccccc2c1 (stereo unspecified) | inactive
CCOC(=O)c1c(NC(=O)CSc2nnnn2-c2ccccc2OCC)sc2c1CC(C)(C)NC2(C)C | active: 14.6 µM
COc1ccc(Cl)cc1Nc1nc(-c2sc(NC(=O)C(C)(C)C)nc2C)cs1 | active: 3.66 µM
Cc1ccccc1S(=O)(=O)Oc1cccc2c(O)cccc12 | inactive
CCOC(=O)c1cccc(NC(=O)CSc2nnc(C)n2CC2CCCO2)c1 (stereo unspecified) | inactive
COc1ccc(C(=O)CCN2CCN(c3ccccc3F)CC2)cc1 | active: 3.66 µM
CCCCN(CC)S(=O)(=O)c1ccccc1 | inconclusive [inhibitor, single point]
O=C1C=C(/C=C/c2ccccc2)C[C@@H](c2ccc(F)cc2)C1 | inconclusive [inhibitor, single point]
CCOC(=O)C1(CCOc2ccccc2)CCN(Cc2cccc(OC)c2O)CC1 | inconclusive [inhibitor, single point]
COc1cc(OC)cc(C(=O)Nc2ccc3oc(-c4ccc(Cl)cc4)nc3c2)c1 | inconclusive [inhibitor, partial curve]
CC1CC(Nc2ccccc2N)=CC(=O)O1 (stereo unspecified) | inactive
O=C(C1=C[C@@H](c2ccc(Br)cc2)C[C@@H](OCCCCO)O1)N1CCN(Cc2ccccc2)CC1 | active: 5.8 µM
CC1CCCC(C)N1C(=O)C1CCCCC1 (stereo unspecified) | inactive
COc1cc(-n2c(=O)c3ccccc3n(Cc3cc(=O)n4ccccc4n3)c2=O)cc(OC)c1OC | inconclusive [inhibitor, single point]
O=C(CN(C(=O)CCC(=O)Nc1ccccn1)c1ccc(F)cc1)NCc1ccc(F)cc1 | inconclusive [inhibitor, full curve, poor fit]
